Some of the results follow. Single values are uncertain, as repeats are few or missing.
These compounds were tested on MEL-HO (assay: cell count relative to DMSO control; melanoma cells; higher = more viable cells). Details: library dose: standard library concentration; 72 h.
Compound `C=CCNC1=C2C[C@@H](C)C[C@H](OC)[C@H](O)[C@@H](C)/C=C(\C)[C@H](OC(N)=O)[C@@H](OC)/C=C\C=C(/C)C(=O)NC(=CC1=O)C2=O` [Tanespimycin] + NC(=O)Nc1cc(-c2cccc(F)c2)sc1C(=O)N[C@H]1CCCNC1 [AZD7762] (first compound 0.01 µM, partner dose 0.1 µM) has a cell count of 66.8%.
For `CS(=O)(=O)CCNCc1ccc(-c2ccc3ncnc(Nc4ccc(OCc5cccc(F)c5)c(Cl)c4)c3c2)o1` [lapatinib] + C=C(c1ccc(C(=O)O)cc1)c1cc2c(cc1C)C(C)(C)CCC2(C)C [Bexarotene] (first compound 4 µM, partner dose 10 µM), the cell count was 71.7%.
With `CN1CCN(c2ccc3nc(-c4c(N)c5c(F)cccc5[nH]c4=O)[nH]c3c2)CC1` [Dovitinib] + Cn1cncc1[C@@](N)(c1ccc(Cl)cc1)c1ccc2c(c1)c(-c1cccc(Cl)c1)cc(=O)n2C [tipifarnib] (first compound 0.5 µM, partner dose 0.05 µM) the cell count was 79.9%.
Work on `CS(=O)(=O)CCNCc1ccc(-c2ccc3ncnc(Nc4ccc(OCc5cccc(F)c5)c(Cl)c4)c3c2)o1` [lapatinib] + Cn1c(Nc2ccc(C(F)(F)F)cc2)nc2cc(Oc3ccnc(-c4ncc(C(F)(F)F)[nH]4)c3)ccc21 [CHIR265] (first compound 4 µM, partner dose 0.4 µM) yielded a cell count of 58.4%.
`CS(=O)(=O)CCNCc1ccc(-c2ccc3ncnc(Nc4ccc(OCc5cccc(F)c5)c(Cl)c4)c3c2)o1` [lapatinib] + O=C(O)c1ccc2c(c1)nc(Nc1cccc(Cl)c1)c1ccncc12 [CX4945] (first compound 4 µM, partner dose 2 µM) showed a cell count of 46%.
`CNC(=O)c1cc(Oc2ccc(NC(=O)Nc3ccc(Cl)c(C(F)(F)F)c3)cc2)ccn1` [sorafenib] + COc1ccc2c(c1)CCC1C2CCC2(C)C(NCCCCCCN3C(=O)C=CC3=O)CCC12 [U73122] (first compound 2 µM, partner dose 2 µM) was tested, and the cell count was 98%.
`CNC(=O)c1cc(Oc2ccc(NC(=O)Nc3ccc(Cl)c(C(F)(F)F)c3)cc2)ccn1` [sorafenib] + c1cc(-c2cnn3cc(-c4ccc(OCCN5CCCCC5)cc4)cnc23)ccn1 [Dorsomorphin] (first compound 2 µM, partner dose 2 µM) showed a cell count of 87.1%.
`C[C@@H](Oc1cc(-c2cnn(C3CCNCC3)c2)cnc1N)c1c(Cl)ccc(F)c1Cl` [Crizotinib] + CC(C)CCN1c2nc(Nc3cc(F)c(O)c(F)c3)ncc2N(C)C(=O)C1C [BID1870] (first compound 1 µM, partner dose 1 µM) showed a cell count of 77.7%.
In the case of `C[C@@H](Oc1cc(-c2cnn(C3CCNCC3)c2)cnc1N)c1c(Cl)ccc(F)c1Cl` [Crizotinib] + O=C(O)c1ccc2c(c1)nc(Nc1cccc(Cl)c1)c1ccncc12 [CX4945] (first compound 1 µM, partner dose 2 µM), the cell count was 52.7%.
Compound `C[C@@H](Oc1cc(-c2cnn(C3CCNCC3)c2)cnc1N)c1c(Cl)ccc(F)c1Cl` [Crizotinib] + CN(C)S(=O)(=O)c1ccc2c(c1)/C(=C/c1cc3c([nH]1)CCCC3)C(=O)N2 [SU6656] (first compound 1 µM, partner dose 2 µM) has a cell count of 68.7%.
For `CNC(=O)c1cc(Oc2ccc(NC(=O)Nc3ccc(Cl)c(C(F)(F)F)c3)cc2)ccn1` [sorafenib] + CC(=O)c1c(C)c2cnc(Nc3ccc(N4CCNCC4)cn3)nc2n(C2CCCC2)c1=O [palbociclib] (first compound 2 µM, partner dose 0.2 µM), the cell count was 82.3%.
With `CNC(=O)c1cc(Oc2ccc(NC(=O)Nc3ccc(Cl)c(C(F)(F)F)c3)cc2)ccn1` [sorafenib] + C=CCn1c(=O)c2cnc(Nc3ccc(N4CCN(C)CC4)cc3)nc2n1-c1cccc(C(C)(C)O)n1 [MK1775] (first compound 2 µM, partner dose 0.1 µM) the cell count was 95.5%.
Compound `CN1CCN(c2ccc3nc(-c4c(N)c5c(F)cccc5[nH]c4=O)[nH]c3c2)CC1` [Dovitinib] + CN(NC(=O)CC(=O)NN(C)C(=S)c1ccccc1)C(=S)c1ccccc1 [STA4783] (first compound 0.5 µM, partner dose 0.03 µM) has a cell count of 76.2%.
Compound `C[C@@H](Oc1cc(-c2cnn(C3CCNCC3)c2)cnc1N)c1c(Cl)ccc(F)c1Cl` [Crizotinib] + Clc1ccc(Nc2nnc(Cc3ccncc3)c3ccccc23)cc1 [vatalanib] (first compound 1 µM, partner dose 10 µM) has a cell count of 43.7%.
`C=CCNC1=C2C[C@@H](C)C[C@H](OC)[C@H](O)[C@@H](C)/C=C(\C)[C@H](OC(N)=O)[C@@H](OC)/C=C\C=C(/C)C(=O)NC(=CC1=O)C2=O` [Tanespimycin] + CN(NC(=O)CC(=O)NN(C)C(=S)c1ccccc1)C(=S)c1ccccc1 [STA4783] (first compound 0.01 µM, partner dose 0.03 µM) was tested, and the cell count was 80%.
Work on `CS(=O)(=O)CCNCc1ccc(-c2ccc3ncnc(Nc4ccc(OCc5cccc(F)c5)c(Cl)c4)c3c2)o1` [lapatinib] + O=C(O)C(=O)Nc1sc2c(c1C(=O)O)CCNC2 [TCS401] (first compound 4 µM, partner dose 8.33333 µM) yielded a cell count of 92.7%.
`CN1CCN(c2ccc3nc(-c4c(N)c5c(F)cccc5[nH]c4=O)[nH]c3c2)CC1` [Dovitinib] + CC1(C)NC(=O)N(c2ccc([N+](=O)[O-])c(C(F)(F)F)c2)C1=O [nilutamide] (first compound 0.5 µM, partner dose 5 µM) was tested, and the cell count was 80.3%.
Work on `CS(=O)(=O)CCNCc1ccc(-c2ccc3ncnc(Nc4ccc(OCc5cccc(F)c5)c(Cl)c4)c3c2)o1` [lapatinib] + C[C@@H]1CCN(C(=O)CC#N)C[C@@H]1N(C)c1ncnc2[nH]ccc12 [CP690550] (first compound 4 µM, partner dose 5 µM) yielded a cell count of 86.9%.
In the case of `C[C@@H](Oc1cc(-c2cnn(C3CCNCC3)c2)cnc1N)c1c(Cl)ccc(F)c1Cl` [Crizotinib] + C[C@@H]1CCN(C(=O)CC#N)C[C@@H]1N(C)c1ncnc2[nH]ccc12 [CP690550] (first compound 1 µM, partner dose 5 µM), the cell count was 102%.
Work on `C[C@@H](Oc1cc(-c2cnn(C3CCNCC3)c2)cnc1N)c1c(Cl)ccc(F)c1Cl` [Crizotinib] + NC(=O)Nc1cc(-c2cccc(F)c2)sc1C(=O)N[C@H]1CCCNC1 [AZD7762] (first compound 1 µM, partner dose 0.1 µM) yielded a cell count of 81.1%.
`CN1CCN(c2ccc3nc(-c4c(N)c5c(F)cccc5[nH]c4=O)[nH]c3c2)CC1` [Dovitinib] + N#Cc1c(O)c2c(-c3ccc(-c4ccccc4O)cc3)csc2[nH]c1=O [A769662] (first compound 0.5 µM, partner dose 10 µM) showed a cell count of 74.9%.
In the case of `CN1CCN(c2ccc3nc(-c4c(N)c5c(F)cccc5[nH]c4=O)[nH]c3c2)CC1` [Dovitinib] + C#Cc1cccc(Nc2ncnc3cc(OCCOC)c(OCCOC)cc23)c1 [erlotinib] (first compound 0.5 µM, partner dose 4 µM), the cell count was 55.6%.
In the case of `CN1CCN(c2ccc3nc(-c4c(N)c5c(F)cccc5[nH]c4=O)[nH]c3c2)CC1` [Dovitinib] + O=C(O)C(=O)Nc1sc2c(c1C(=O)O)CCNC2 [TCS401] (first compound 0.5 µM, partner dose 8.33333 µM), the cell count was 85.4%.
For `C[C@@H](Oc1cc(-c2cnn(C3CCNCC3)c2)cnc1N)c1c(Cl)ccc(F)c1Cl` [Crizotinib] + Cn1nnc2c(C(N)=O)ncn2c1=O [temozolomide] (first compound 1 µM, partner dose 10 µM), the cell count was 80.9%.
With `C=CCNC1=C2C[C@@H](C)C[C@H](OC)[C@H](O)[C@@H](C)/C=C(\C)[C@H](OC(N)=O)[C@@H](OC)/C=C\C=C(/C)C(=O)NC(=CC1=O)C2=O` [Tanespimycin] + OCCn1cc(-c2cnc3nnn(Cc4ccc5ncccc5c4)c3n2)cn1 [PF04217903] (first compound 0.01 µM, partner dose 5 µM) the cell count was 92.7%.
With `C[C@@H](Oc1cc(-c2cnn(C3CCNCC3)c2)cnc1N)c1c(Cl)ccc(F)c1Cl` [Crizotinib] + C=CCn1c(=O)c2cnc(Nc3ccc(N4CCN(C)CC4)cc3)nc2n1-c1cccc(C(C)(C)O)n1 [MK1775] (first compound 1 µM, partner dose 0.1 µM) the cell count was 95.4%.
Work on `C=CCNC1=C2C[C@@H](C)C[C@H](OC)[C@H](O)[C@@H](C)/C=C(\C)[C@H](OC(N)=O)[C@@H](OC)/C=C\C=C(/C)C(=O)NC(=CC1=O)C2=O` [Tanespimycin] + OCc1c[nH]c2ccccc12 [Indole-3-carbinol] (first compound 0.01 µM, partner dose 4 µM) yielded a cell count of 76.7%.
With `CS(=O)(=O)CCNCc1ccc(-c2ccc3ncnc(Nc4ccc(OCc5cccc(F)c5)c(Cl)c4)c3c2)o1` [lapatinib] + NC(=O)Nc1cc(-c2cccc(F)c2)sc1C(=O)N[C@H]1CCCNC1 [AZD7762] (first compound 4 µM, partner dose 0.1 µM) the cell count was 72%.
`CN1CCN(c2ccc3nc(-c4c(N)c5c(F)cccc5[nH]c4=O)[nH]c3c2)CC1` [Dovitinib] + Nc1ncn([C@H]2C[C@H](O)[C@@H](CO)O2)c(=O)n1 [decitabine] (first compound 0.5 µM, partner dose 0.5 µM) showed a cell count of 66.8%.
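Note: cells treated in 1,536-well plates, then fixed and DAPI-stained, with nuclei counted from automated high-throughput microscope images.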
